In assay [1] the target is FAM118B24–334-L32R (human) (UniProt Q9BPY3). As to the kind of experiment: SEC; analytical SEC, Superdex Increase 10/300 GL, 50 mM Tris pH 8, 200 mM NaCl, 0.5 mM TCEP; injection concentrations up to 20 µM (mutant mixture: 10 µM each); sizes are coarse estimates from globular standards; both purified.
Assay [2] addresses FAM118B-L32R, full length, tagged with mEGFP or with mCherry (human) (UniProt Q9BPY3). As to the kind of experiment: fluorescence cross-correlation spectroscopy (FCCS); living U2OS cells coexpressing an mEGFP-tagged and an mCherry-tagged protein, 37 °C; diffuse, lower-expressing cells.
Assay [3] addresses FAM118B-F122R, full length, tagged with mEGFP or with mCherry (human) (UniProt Q9BPY3). The assay is described as above.
The target in assay [4] is FAM118B24–334-F122R (human) (UniProt Q9BPY3). In words: SEC; analytical SEC, Superdex Increase 10/300 GL, 50 mM Tris pH 8, 200 mM NaCl, 0.5 mM TCEP; injection concentrations up to 20 µM (mutant mixture: 10 µM each); sizes are coarse estimates from globular standards; both purified.

Protein sequences, listed by entry. Tags and fused reporters are not part of them. Lines headed by an entry give the natural chain unless they say otherwise; changes in a name come on top. Chains listed by the source or under a name are the forms on record and can include a tag or linker.
UniProt Q9BPY3: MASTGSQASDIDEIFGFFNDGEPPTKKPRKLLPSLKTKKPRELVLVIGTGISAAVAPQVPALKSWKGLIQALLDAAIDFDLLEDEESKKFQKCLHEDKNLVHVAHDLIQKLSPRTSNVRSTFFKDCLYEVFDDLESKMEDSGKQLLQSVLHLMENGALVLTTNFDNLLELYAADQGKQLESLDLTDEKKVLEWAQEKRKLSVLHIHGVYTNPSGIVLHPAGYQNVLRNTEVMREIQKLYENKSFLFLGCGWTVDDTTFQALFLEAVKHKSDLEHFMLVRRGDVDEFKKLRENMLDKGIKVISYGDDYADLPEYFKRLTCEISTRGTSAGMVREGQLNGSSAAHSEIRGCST
FAM118B24–334-L32R (Q9BPY3, form named): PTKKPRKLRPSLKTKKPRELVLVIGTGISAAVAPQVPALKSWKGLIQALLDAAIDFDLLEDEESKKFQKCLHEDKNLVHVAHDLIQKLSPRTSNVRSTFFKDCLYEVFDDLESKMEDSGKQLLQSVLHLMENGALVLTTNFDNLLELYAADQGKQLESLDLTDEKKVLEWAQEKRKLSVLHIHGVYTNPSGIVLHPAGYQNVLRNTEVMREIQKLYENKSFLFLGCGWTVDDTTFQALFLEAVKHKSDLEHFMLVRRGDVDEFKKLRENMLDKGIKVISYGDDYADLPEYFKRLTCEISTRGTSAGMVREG
FAM118B24–334-F122R (Q9BPY3, form named): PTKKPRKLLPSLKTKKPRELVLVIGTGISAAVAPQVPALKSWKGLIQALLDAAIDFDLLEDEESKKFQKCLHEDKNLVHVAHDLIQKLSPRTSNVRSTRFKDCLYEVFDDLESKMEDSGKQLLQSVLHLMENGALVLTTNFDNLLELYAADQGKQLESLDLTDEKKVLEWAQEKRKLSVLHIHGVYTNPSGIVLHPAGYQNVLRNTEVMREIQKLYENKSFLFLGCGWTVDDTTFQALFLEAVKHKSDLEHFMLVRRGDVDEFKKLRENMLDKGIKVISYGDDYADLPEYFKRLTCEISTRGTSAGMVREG

These are yes or no findings as the source states them, for the method shown. Some entries that bind do so weakly or less than the wild type.

Turning to “FAM118B24–334-L32R (from UniProt Q9BPY3 24-334) (domain or fragment)”, the binding entry in assay [1] is “no binding (tested: 20 µM)”.

With “FAM118B-L32R, full length, tagged with mEGFP or with mCherry (from UniProt Q9BPY3 1-351) (enzyme)”, the binding entry is “no binding” in assay [2] and “binds” in assay [3].

Consider “FAM118B-F122R, full length, tagged with mEGFP or with mCherry (from UniProt Q9BPY3 1-351) (enzyme)”, for which the binding entry in assay [2] was “binds”; in assay [3], “no binding”.

With “FAM118B24–334-F122R (from UniProt Q9BPY3 24-334) (domain or fragment)”, in assay [4], the binding entry is “binds weakly”.

The values above are taken from article PMC12700824.
